Results taken from article PMC5686351, “Tudor-domain protein PHF20L1 reads lysine methylated retinoblastoma tumour suppressor protein” (Cell Death and Differentiation, 2017).
No constants are given. Whether binding was seen depends on the method and setting. For some of these results: Binding seen in cells or lysates may run through a third protein. Some binding calls cover weakened binding; strength is not graded here. For some of these results: Tags and fused reporters may be left off the sequences shown.

Tests used:
[1] = biological target: T1, tudor 1 domain of PHF20L1 on the CADOR array (UniProt A8MW92); assay: peptide or protein array; CADOR array of GST-fused chromatin-associated domains, probed with labelled biotinylated pRb peptides; both purified
T1 sequence: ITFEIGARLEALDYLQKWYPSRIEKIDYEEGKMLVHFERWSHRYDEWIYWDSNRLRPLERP

[2] = biological target: T2, RbK810me1 peptide (biotin-…[me]SPYKISEG) (human); assay: pull-down; peptides immobilised on streptavidin-agarose; 250 ng recombinant GST fusion, 30 min at 4 °C; eight washes in modified RIPA with 300 mM NaCl; flow-through and eluate blotted; both purified
T2 sequence (peptide, biotin on the N-terminus; mono-methyl-lysine K[me] at K810): GNIYISPLKSPYKISEG

[3] = biological target: T3, HA-pRb (human) (UniProt P06400); assay: co-IP; U2OS pRb CRISPR cell lines stably expressing HA-pRb or HA-pRb-K810R; anti-HA agarose in modified RIPA; endogenous PHF20L1 detected by immunoblot
T3 sequence: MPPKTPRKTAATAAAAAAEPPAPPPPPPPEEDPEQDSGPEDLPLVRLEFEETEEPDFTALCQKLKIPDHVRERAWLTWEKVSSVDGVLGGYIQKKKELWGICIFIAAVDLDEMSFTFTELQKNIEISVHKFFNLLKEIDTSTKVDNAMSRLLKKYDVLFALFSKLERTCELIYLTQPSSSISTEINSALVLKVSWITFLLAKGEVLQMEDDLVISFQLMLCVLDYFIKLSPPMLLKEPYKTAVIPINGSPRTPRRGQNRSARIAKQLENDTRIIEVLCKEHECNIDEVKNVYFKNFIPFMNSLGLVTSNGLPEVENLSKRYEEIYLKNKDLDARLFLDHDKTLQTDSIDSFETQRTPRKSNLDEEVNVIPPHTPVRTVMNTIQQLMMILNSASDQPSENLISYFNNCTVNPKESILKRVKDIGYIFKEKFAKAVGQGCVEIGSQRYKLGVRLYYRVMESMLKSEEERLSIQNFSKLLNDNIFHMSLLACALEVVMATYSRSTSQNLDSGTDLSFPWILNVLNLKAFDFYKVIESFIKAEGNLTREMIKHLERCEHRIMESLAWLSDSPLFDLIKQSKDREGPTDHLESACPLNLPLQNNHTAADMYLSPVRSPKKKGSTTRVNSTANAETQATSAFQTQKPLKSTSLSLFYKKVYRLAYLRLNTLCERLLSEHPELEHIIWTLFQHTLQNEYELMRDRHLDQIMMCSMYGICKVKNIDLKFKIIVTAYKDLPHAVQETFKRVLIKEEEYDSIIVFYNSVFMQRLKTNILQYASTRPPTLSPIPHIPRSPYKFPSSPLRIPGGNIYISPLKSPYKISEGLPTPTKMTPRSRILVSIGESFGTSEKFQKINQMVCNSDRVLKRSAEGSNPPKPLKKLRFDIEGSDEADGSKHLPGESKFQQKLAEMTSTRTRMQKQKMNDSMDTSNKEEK

B1: RbK810me1 peptide (biotin-…[me]SPYKISEG) (peptide)
peptide: GNIYISPLKSPYKISEG
modifications: biotin on the N-terminus; mono-methyl-lysine K[me] at K810
binding [1]: binds

B2: GST-PHF20 tudor 2 (58–148) (domain or fragment, UniProt Q9BVI0 58-148)
chain: FCWDSPYLRPLEKIQLRKEGLHEEDGSSEFQINEQVLACWSDCRFYPAKVTAVNKDGTYTVKFYDGVVQTVKHIHVKAFSKDQNIVGNARP
binding [2]: binds weakly

B3: GST-PHF20 tudor 1+2 (1–148) (domain or fragment, UniProt Q9BVI0 1-148)
chain: MTKHPPNRRGISFEVGAQLEARDRLKNWYPAHIEDIDYEEGKVLIHFKRWNHRYDEWFCWDSPYLRPLEKIQLRKEGLHEEDGSSEFQINEQVLACWSDCRFYPAKVTAVNKDGTYTVKFYDGVVQTVKHIHVKAFSKDQNIVGNARP
binding [2]: binds weakly

B4: endogenous PHF20L1 (protein, UniProt A8MW92 1-1017)
chain: MSKKPPNRPGITFEIGARLEALDYLQKWYPSRIEKIDYEEGKMLVHFERWSHRYDEWIYWDSNRLRPLERPALRKEGLKDEEDFFDFKAGEEVLARWTDCRYYPAKIEAINKEGTFTVQFYDGVIRCLKRMHIKAMPEDAKGQVKSQHPLSWCCPIDPAGSCNQSMGSEDWIALVKAAAAAAAKNKTGSKPRTSANSNKDKDKDERKWFKVPSKKEETSTCIATPDVEKKEDLPTSSETFGLHVENVPKMVFPQPESTLSNKRKNNQGNSFQAKRARLNKITGLLASKAVGVDGAEKKEDYNETAPMLEQAISPKPQSQKKNEADISSSANTQKPALLSSTLSSGKARSKKCKHESGDSSGCIKPPKSPLSPELIQVEDLTLVSQLSSSVINKTSPPQPVNPPRPFKHSERRRRSQRLATLPMPDDSVEKVSSPSPATDGKVFSISSQNQQESSVPEVPDVAHLPLEKLGPCLPLDLSRGSEVTAPVASDSSYRNECPRAEKEDTQMLPNPSSKAIADGRGAPAAAGISKTEKKVKLEDKSSTAFGKRKEKDKERREKRDKDHYRPKQKKKKKKKKKSKQHDYSDYEDSSLEFLERCSSPLTRSSGSSLASRSMFTEKTTTYQYPRAILSVDLSGENLSDVDFLDDSSTESLLLSGDEYNQDFDSTNFEESQDEDDALNEIVRCICEMDEENGFMIQCEECLCWQHSVCMGLLEESIPEQYICYICRDPPGQRWSAKYRYDKEWLNNGRMCGLSFFKENYSHLNAKKIVSTHHLLADVYGVTEVLHGLQLKIGILKNKHHPDLHLWACSGKRKDQDQIIAGVEKKIAQDTVNREEKKYVQNHKEPPRLPLKMEGTYITSEHSYQKPQSFGQDCKSLADPGSSDDDDVSSLEEEQEFHMRSKNSLQYSAKEHGMPEKNPAEGNTVFVYNDKKGTEDPGDSHLQWQLNLLTHIENVQNEVTSRMDLIEKEVDVLESWLDFTGELEPPDPLARLPQLKRHIKQLLIDMGKVQQIATLCSV
binding [3]: binds

B5: GST-PHF20 tudor 1 (1–83) (domain or fragment, UniProt Q9BVI0 1-83)
chain: MTKHPPNRRGISFEVGAQLEARDRLKNWYPAHIEDIDYEEGKVLIHFKRWNHRYDEWFCWDSPYLRPLEKIQLRKEGLHEEDG
binding [2]: binds weakly

B6: GST-PHF20L1 tudor 2 (54–160) (domain or fragment, UniProt A8MW92 54-160)
chain: YDEWIYWDSNRLRPLERPALRKEGLKDEEDFFDFKAGEEVLARWTDCRYYPAKIEAINKEGTFTVQFYDGVIRCLKRMHIKAMPEDAKGQVKSQHPLSWCCPIDPAG
binding [2]: no binding

B7: GST-PHF20L1 tudor 1 D23A (domain or fragment, UniProt A8MW92 1-74)
chain: MSKKPPNRPGITFEIGARLEALAYLQKWYPSRIEKIDYEEGKMLVHFERWSHRYDEWIYWDSNRLRPLERPALR
binding [2]: no binding
